{
  "sequences": {"note": "The chains behind the UniProt entries cited, without tags or fusion partners. Where a name states a change or a piece, a line headed by the entry shows the natural chain unless it says otherwise. A line that says so, or that is headed by a name, gives the form on record, which may keep a tag or linker. Residues count along the entry.", "vimentin^ROD (residues T99–I249) D176K (P08670, form named)": "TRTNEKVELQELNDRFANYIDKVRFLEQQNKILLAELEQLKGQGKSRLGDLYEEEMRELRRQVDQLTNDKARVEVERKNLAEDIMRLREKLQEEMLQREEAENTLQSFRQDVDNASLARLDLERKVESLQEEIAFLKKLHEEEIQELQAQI", "vimentin^ROD (residues T99–I249) E187K (P08670, form named)": "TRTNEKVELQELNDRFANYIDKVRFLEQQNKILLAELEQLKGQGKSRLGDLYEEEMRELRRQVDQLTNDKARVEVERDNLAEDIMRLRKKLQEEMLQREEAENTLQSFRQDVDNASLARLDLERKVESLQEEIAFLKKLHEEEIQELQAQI"},
  "source": "paper PMC7035337",
  "binders": {"B1": {"name": "periplakin linker domain (K1646–K1756), wild-type (domain or fragment, UniProt O60437 1646-1756)", "chain": "KREQRENHLRRSIVVIHPDTGRELSPEEAHRAGLIDWNMFVKLRSQECDWEEISVKGPNGESSVIHDRKSGKKFSIEEALQSGRLTPAQYDRYVNKDMSIQELAVLVSGQK"}},
  "key": {"[1]": {"target": "vimentin^ROD (residues T99–I249) D176K (human) (UniProt P08670)", "experiment": "MST; 50 nM NT647-labelled vimentin^ROD, linker titrated 780 nM to 800 uM; 150 mM NaCl, 20 mM HEPES pH 7.5, 0.015% Tween 20; 25 C; one-site binding model; both purified"}, "[2]": {"target": "vimentin^ROD (residues T99–I249) E187K (human) (UniProt P08670)", "experiment": "MST; 50 nM NT647-labelled vimentin^ROD, linker titrated 780 nM to 800 uM; 150 mM NaCl, 20 mM HEPES pH 7.5, 0.015% Tween 20; 25 C; one-site binding model; both purified"}},
  "note": "These are yes or no findings as the source states them, for the method shown.",
  "data": [
    {"binder": "B1", "values": [
      {"measurement": "binding", "setting": "[1]", "result": "no binding (tested: 800 μM)"},
      {"measurement": "binding", "setting": "[2]", "result": "no binding (tested: 800 μM)"}
    ]}
  ]
}
